Assay results as given in the supplement of paper PMC11417369.
± gives the standard deviation of the averaged measurements. The list shows a part of the results.

System: PfAP2-I AP2 domain 3 (GST-tagged)
Test: gcPBM binding intensity (ln(normalized median fluorescence intensity)); higher = stronger DNA binding
How it was run: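 Using an Agilent 4 × 180k array, primer-extended double-stranded 36-bp intergenic genomic probes and negative controls were exposed for 1 h to GST-fused P. falciparum DNA-binding domains expressed in E. coli. Binding was carried out in 1× PBS with 1% milk, 0.2 mg/ml BSA, 0.5% salmon testes DNA and 0.03% Triton X-100, and protein was detected with Alexa488 anti-GST antibody and a 488 nm scan. Binding intensity is the highest Masliner-normalised natural-log median intensity across replicate spots of either probe orientation.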

| Sequence | gcPBM binding intensity (ln) |
| --- | --- |
| ATATATATAATATAATGTACATATATTTTATTTTTA [XGTACX_site3819] | 8.21 ± 0.47 |
| ACGTATTAGATAAATACACACACAAGCATATATTTT [CACACA_site9135] | 7.72 ± 0.52 |
| TAATGTATTATATTTAGTACATATAAAAATAATTTT [XGTACX_site6886] | 7.51 ± 0.32 |
| ATATATTAATTTAATTGTACGAATAAAAAAAAAAAA [XGTACX_site223] | 8.19 ± 0.62 |
| TATATACATTTATGTACACACACATATATGTATATT [CACACA_site8971] | 7.73 ± 0.45 |
| AAAGCACCCAAGAATACACACAAATATTATAAAAAA [CACACA_site111] | 8.07 ± 0.71 |
| AAAAGGTATGTTATACATAGATATGCACATATATGT [TGCATGCA_negctrl_site96] | 8.96 ± 0.45 |
| ATTAATATAAAAAGGTAAATGGATGTAATATATATA [XGTACX_negctrl_site2] | 8.21 ± 0.67 |
| AAAATTGTTATTTTATGTACTTATATTTATTTATTT [XGTACX_site3478] | 7.6 ± 0.44 |
| TTTTTTTTGTGTATTTGTACATAATATATATATATA [XGTACX_site7092] | 9.15 ± 0.18 |
| TCGTAATTTTTTTTTATATATTAGGAATTTATAAAA [XGTACX_negctrl_site409] | 7.43 ± 0.39 |
| TAATACCATTGTCATGCATGCACATTATTACTCTAA [TGCATGCA_site160] | 8.26 ± 0.76 |
| ATATTATATTTCTTTTGTACATATTATATAATATAT [XGTACX_site7198] | 8.1 ± 0.56 |
| TTTTTTTTTAAATAATGTACTTTTCATTATTTAGAT [XGTACX_site1706] | 7.81 ± 0.37 |
| AAAGAAAAAAATAATTGTACATTTATATTTAATTTA [XGTACX_site8003] | 7.36 ± 0.31 |
| TTTTTATTTATTAATACACACACACCCACCCACAAA [CACACA_site7965] | 9.18 ± 0.39 |
| CACATACACATACAAACACACATTAGATATAAATAT [CACACA_site6854] | 8.01 ± 0.13 |
| AAAAAAAATTAATAGGGTACATGAAAAGTGGAATAT [XGTACX_site618] | 8.45 ± 0.54 |
| ATAGAAGAAATATGCACACATACATTGAAATGTTTT [CACACA_site321] | 8.81 ± 0.092 |
| AAAAAAAAATTAAAAACACACATATAAATAAATATA [CACACA_site6845] | 7.58 ± 0.52 |
| AACAAAATAGGGAACACACACATGTCAATATATAAA [CACACA_site2596] | 7.9 ± 0.62 |
| TGAACACGCACAAATACACACAAAAAAAATAAATAA [CACACA_site6257] | 8.12 ± 0.092 |

| Sequence | gcPBM binding intensity (ln) |
| --- | --- |
| CCATTAAGACACATTGCACACGTGCACCCATAGAAA [CACACA_site4388] | 10.79 ± 0.021 |
| ATAGTATAACAGCAATGTACACATATTTGTGTATAT [XGTACX_site7899] | 7.82 ± 0.4 |
| TATATATATAAACACACACACACATATATATATATT [CACACA_site8814] | 8.6 ± 0.36 |
| ATATATATTTAAATGTGTACTCATTTATTTTATGTC [XGTACX_site4984] | 8.11 ± 0.28 |
| TTTTTTTTTTTTGTCACACATATATTTGTATTTATA [CACACA_site5234] | 8.16 ± 0.73 |
| TGATATTTATAATAAATATTATAATAAAATCAAACA [XGTACX_negctrl_site219] | 7.38 ± 0.54 |
| ATATATATTTTTATTTGTACATAATTTTTTTTGTGA [XGTACX_site6378] | 8.02 ± 0.59 |
| ATATATGTAATAAATAGTACACACACACATATATAT [XGTACX_site2817] | 8.24 ± 0.49 |
| TTTTTTTTTTTTTGCACACACATATATAGATATATA [CACACA_site7784] | 9.69 ± 0.26 |
| ATAAAATTGTTTAAATGTACATATGAACAGTCAGTA [XGTACX_site5140] | 7.82 ± 0.54 |
| AAATTACTTTCACAGTGTACTTGGAAAAAAAAAAGA [XGTACX_site1046] | 7.84 ± 0.54 |
| TTTTTTTTTTTTTTTTGTACGTAATATATGATTAAT [XGTACX_site6876] | 8.18 ± 0.69 |
| CATTTTATCAAAAGTGGTACAACCCTTTCAAAAAAT [XGTACX_site341] | 7.65 ± 0.49 |
| AGATATAATAAATATACACACATATATATATATATA [CACACA_site962] | 9.2 ± 0.76 |
| TGAAAAATGTTGATGTGTACTTATATAGTGTGTTAA [XGTACX_site2100] | 8.2 ± 0.36 |
| TAATTTTATATATGCACACAAAATATGTTCATATAA [CACACA_site4076] | 9.08 ± 0.24 |
| TTTAACATAAATTAAACACACAATATAATACATTAA [CACACA_site1237] | 7.61 ± 0.43 |
| TTACATAATATATGTACACACGCAAATACTTATAAT [CACACA_site7995] | 8.04 ± 0.25 |
| TATAAATATGTTCTTACACACACGAATATAAATATG [CACACA_site7537] | 7.79 ± 0.31 |
| TATATTTCTTATTTCTTATTTTGTCATCACCTTTTT [CACACA_negctrl_site1115] | 7.65 ± 0.67 |
| CACACCCACAAAAACACACACAAAGGTGTTCTTATA [CACACA_site1293] | 7.54 ± 0.57 |
| TATTTATTTTTTTGCACACATATTTTACATTTTAAT [CACACA_site3181] | 9.755 ± 0.021 |

| Sequence | gcPBM binding intensity (ln) |
| --- | --- |
| ATAACATTCATATTCACACAAAAATATACTACATAG [CACACA_site4529] | 7.73 ± 0.48 |
| TATATATATATATATACACACATATATATATTTATA [CACACA_site627] | 9.55 ± 0.48 |
| TGTAGTCTGGAGAAACGTACATAGTATCTGGTAACC [XGTACX_site4939] | 8.02 ± 0.71 |
| ATATAAAAAGTGTATCGTACATTTACTTATTTTATA [XGTACX_site6249] | 7.64 ± 0.42 |
| ATAAAAAAAGGACACACACACATATATATATATATA [CACACA_site5662] | 9.45 ± 0.3 |
| ATTGAAAATTGTTGCACACATAATAATTAAATATAT [CACACA_site1857] | 9.1 ± 0.19 |
| GTTTATTTATTATAATGTACATTAGTCTGAGGAGTT [XGTACX_site4035] | 8.04 ± 0.57 |
| TTTTATTTATATATAGTGCATATTATTATAAAACAA | 10.48 ± 0.071 |
| ATATATATATATATATGTACATATGTTAATCTGCAT [XGTACX_site1068] | 9.44 ± 0.42 |
| CTTTTTTTCCATTAAGCATGCACATTCATATTTACT [TGCATGCA_site170] | 8.31 ± 0.81 |
| TATATATATATAGGTTGTACATTTTGATGTTTACGT [XGTACX_site5503] | 9.49 ± 0.26 |
| TACTTTTTTTTTTTTTTTTTTTTTTTTTCCCTTTTT [CACACA_negctrl_site761] | 7.47 ± 0.53 |
| TTATTACGAACTCTGCAACATATATAAATAAATAAA [CACACA_negctrl_site44] | 7.83 ± 0.47 |
| AAAATAATATTTAATACACACATAATTACAATATAA [CACACA_site6510] | 7.77 ± 0.35 |
| TACGTATTCATGTATAGTACTCTTTTTTTTAATAAA [XGTACX_site3299] | 7.61 ± 0.38 |
| ACAAGTGTATATGTTATATATATATATATATATATA [CACACA_negctrl_site1686] | 9.51 ± 0.76 |
| AAAGATAAAATATATACACACACATAAATACGTACA [CACACA_site8275] | 7.78 ± 0.45 |
| CATACACGCGGACACACACACACACGCATATATAAC [CACACA_site6427] | 8.22 ± 0.42 |
| ATTATATTTGAATGGTGTACTATAATAATGTAGTTT [XGTACX_site8069] | 8.48 ± 0.28 |
| ACATATATATATATATAAATATATATGTATGTATTT [XGTACX_negctrl_site237] | 7.64 ± 0.34 |
| GAATAAATTAAATTCACACATAAAATACAAAATACA [CACACA_site5495] | 7.68 ± 0.52 |
| AAAGAAAATAGGTGTACACATAATAAATACAGCTAT [CACACA_site5917] | 8.34 ± 0.52 |

| Sequence | gcPBM binding intensity (ln) |
| --- | --- |
| CTTATATTAATTATTACACACATATATATAAATGCA [CACACA_site770] | 8.05 ± 0.38 |
| AAAACAAATAAGTAAACACACATATATAATATATAT [CACACA_site2586] | 7.79 ± 0.52 |
| AAAAAAAAAAAAACTAGTACATATATATAGTATGAA [XGTACX_site6279] | 7.6 ± 0.42 |
| ATTTATATTTTATATACACACATGAACTTATATGGA [CACACA_site3167] | 7.72 ± 0.43 |
| GAATATAAAAGGAACGGTACAGAAAAAAAAAAAAAA [XGTACX_site3917] | 8.02 ± 0.81 |
| TTTATTTTTTATATATCACTTAAAAAAAAAAAAAAA [CACACA_negctrl_site249] | 8.02 ± 0.67 |
| ATGTAATATATTATATGTACATATTTTTATGTAGAT [XGTACX_site5945] | 8.02 ± 0.42 |
| ATAACCTAATAATACACACACATGAATATATATAAT [CACACA_site4689] | 8.01 ± 0.44 |
| CTTTTTTTTTTATGCACACACAATTATACATTCCTT [CACACA_site3877] | 10.4 ± 0.24 |
| AATATAGTCTCACATACACACATATATATTTATATA [CACACA_site2503] | 7.83 ± 0.66 |
| AATATATTTTTTTTTGGTACACAAGCACATCTATAC [XGTACX_site2183] | 8.2 ± 0.28 |
| TTTCGATTATGTTTTTGTACGCAATATATTAATTCT [XGTACX_site3634] | 7.85 ± 0.48 |
| CCATGATTATTAGATTGTACATAACATACAAATTGA [XGTACX_site314] | 7.68 ± 0.45 |
| AATGTGCAGAAAAGTGGTACATATGATTGTTAAGAG [XGTACX_site1038] | 8.96 ± 0.6 |
| ATGTCATATATATGTTGTACGAGTTTGTTTATGTAT [XGTACX_site1150] | 7.97 ± 0.57 |
| TTCATTTTATAAAAAGCACACATATAGTTATATGCA [CACACA_site9228] | 8.2 ± 0.34 |
| AGTTTACATTAAATCACGCACACAAAAAAAAAAAAA [CACACA_site2419] | 8.11 ± 0.68 |
| TACCTTTTTTATGTTGCACACTGGGATGTTTTCTAA [CACACA_site1653] | 9.51 ± 0.15 |
| AGTAATATAATATAAGCACACGTGTATTTATTTAGT [CACACA_site4246] | 8.3 ± 0.6 |
| TGCACATTTATGTAACGTACAAAATATAATATGTTA [XGTACX_site8255] | 7.95 ± 0.19 |
| GTATAAAAGTAATGTAGTACTTATATATTTTTATTT [XGTACX_site8975] | 7.58 ± 0.3 |
| TCCTTATATTGGCACACACACACAATAAAATGAAAA [CACACA_site4715] | 8.91 |
